Results as given in the supplement of paper PMC8728848.
Some of the results follow.

Key:
Experiment in all cases: glycan array binding signal (z-score within array); higher = stronger binding
Details in all cases: glycan notation: IUPAC condensed, linker removed
[1] = target: Neu5Ac(a2-6)Gal(b1-4)GlcNAc(b1-2)Man(a1-3)[Man(a1-6)]Man(b1-4)GlcNAc(b1-4)GlcNAc
How it was run: (§1)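 Arrays were curated from the Consortium for Functional Glycomics database, 3228 in total, and kept only where the protein sequence was available. Binding is expressed as a within-array Z-score. This score was averaged across arrays of the same protein sequence at different concentrations or buffers and across linkers, and negative values can be read as non-binding.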

[2] = target: Neu5Ac(a2-6)Gal(b1-4)GlcNAc(b1-2)Man(a1-3)[Neu5Ac(a2-6)Gal(b1-4)GlcNAc(b1-2)Man(a1-6)]Man(b1-4)GlcNAc(b1-4)GlcNAc
How it was run: as §1

[3] = target: Neu5Ac(a2-6)Gal(b1-4)GlcNAc(b1-2)Man(a1-6)Man(b1-4)GlcNAc(b1-4)GlcNAc
How it was run: as §1

[4] = target: Neu5Ac(a2-6)Gal(b1-4)GlcNAc(b1-2)Man(a1-6)[Gal(b1-4)GlcNAc(b1-2)Man(a1-3)]Man(b1-4)GlcNAc(b1-4)GlcNAc
How it was run: as §1

[5] = target: Neu5Ac(a2-6)Gal(b1-4)GlcNAc(b1-2)Man(a1-6)[GlcNAc(b1-2)Man(a1-3)]Man(b1-4)GlcNAc(b1-4)GlcNAc
How it was run: as §1

[6] = target: Neu5Ac(a2-6)Gal(b1-4)GlcNAc(b1-2)Man(a1-6)[Man(a1-3)]Man(b1-4)GlcNAc(b1-4)GlcNAc
How it was run: as §1

[7] = target: Neu5Ac(a2-6)Gal(b1-4)GlcNAc(b1-3)Gal(b1-3)GlcNAc
How it was run: as §1

[8] = target: Neu5Ac(a2-6)Gal(b1-4)GlcNAc(b1-3)Gal(b1-4)GlcNAc
How it was run: as §1

[9] = target: Neu5Ac(a2-6)Gal(b1-4)GlcNAc(b1-3)Gal(b1-4)GlcNAc(b1-3)Gal(b1-4)GlcNAc
How it was run: as §1

[10] = target: Neu5Ac(a2-6)Gal(b1-4)GlcNAc(b1-3)Gal(b1-4)[Fuc(a1-3)]GlcNAc(b1-3)Gal(b1-4)[Fuc(a1-3)]GlcNAc
How it was run: as §1

[11] = target: Neu5Ac(a2-6)Gal(b1-4)GlcNAc(b1-3)GalNAc
How it was run: as §1

[12] = target: Neu5Ac(a2-6)Gal(b1-4)GlcNAc6S
How it was run: as §1

Neu5Ac(a2-6)GalNAc = target: Neu5Ac(a2-6)GalNAc
How it was run: as §1

[13] = target: Neu5Ac(a2-6)GalNAc(b1-4)GlcNAc
How it was run: as §1

[14] = target: Neu5Ac(a2-6)GlcNAc(b1-4)GlcNAc
How it was run: as §1

[15] = target: Neu5Ac(a2-6)GlcNAc(b1-4)GlcNAc(b1-4)GlcNAc
How it was run: as §1

Neu5Ac(a2-8)Neu5Ac = target: Neu5Ac(a2-8)Neu5Ac
How it was run: as §1

[16] = target: Neu5Ac(a2-8)Neu5Ac(a2-3)Gal(b1-4)Glc
How it was run: as §1

[17] = target: Neu5Ac(a2-8)Neu5Ac(a2-3)[GalNAc(b1-4)]Gal(b1-4)Glc
How it was run: as §1

[18] = target: Neu5Ac(a2-8)Neu5Ac(a2-8)Neu5Ac
How it was run: as §1

[19] = target: Neu5Ac(a2-8)Neu5Ac(a2-8)Neu5Ac(a2-3)Gal(b1-4)Glc
How it was run: as §1

[20] = target: Neu5Ac(a2-8)Neu5Ac(a2-8)Neu5Ac(a2-3)[GalNAc(b1-4)]Gal(b1-4)Glc
How it was run: as §1

[21] = target: Neu5Ac(a2-8)Neu5Ac(a2-8)Neu5Ac(a2-8)Neu5Ac(a2-3)[GalNAc(b1-4)]Gal(b1-4)Glc
How it was run: as §1

[22] = target: Neu5Ac(b2-6)Gal(b1-4)GlcNAc
How it was run: as §1

Neu5Ac(b2-6)GalNAc = target: Neu5Ac(b2-6)GalNAc
How it was run: as §1

[23] = target: Neu5Ac9Ac(a2-3)Gal(b1-3)GlcNAc
How it was run: as §1

[24] = target: Neu5Ac9Ac(a2-3)Gal(b1-4)GlcNAc
How it was run: as §1

[25] = target: Neu5Ac9Ac(a2-6)Gal(b1-4)GlcNAc
How it was run: as §1

[26] = target: Neu5Gc(a2-3)Gal(b1-3)GlcNAc
How it was run: as §1

[27] = target: Neu5Gc(a2-3)Gal(b1-3)[Fuc(a1-4)]GlcNAc
How it was run: as §1

Neu5Gc(a2-3)Gal(b1-4)Glc = target: Neu5Gc(a2-3)Gal(b1-4)Glc
How it was run: as §1

[28] = target: Neu5Gc(a2-3)Gal(b1-4)GlcNAc
How it was run: as §1

[29] = target: Neu5Gc(a2-3)Gal(b1-4)[Fuc(a1-3)]GlcNAc
How it was run: as §1

[30] = target: Neu5Gc(a2-6)Gal(b1-4)GlcNAc
How it was run: as §1

Neu5Gc(a2-6)GalNAc = target: Neu5Gc(a2-6)GalNAc
How it was run: as §1

[31] = target: Neu5Gc(b2-6)Gal(b1-4)GlcNAc
How it was run: as §1

B1: Flo11 (Saccharomyces cerevisiae), Q1H8S8 (protein)
chain: MGSSHHHHHHSSGLVPRGSHMFPTALVPRGSSEGTSCNSIVNGCPNLDFNWHMDQQNIMQYTLDVTSVSWVQDNTYQITIHVKGKENIDLKYLWSLKIIGVTGPKGTVQLYGYNENTYLIDNPTDFTATFEVYATQDVNSCQVWMPNFQIQFEYLQGSAAQYASSWQWGTTSFDLSTGCNNYDNQGHSQTDFPGFYWNIDCDNNCGGTKSS
- glycan array binding signal (z-score) [1]: -0.5
- glycan array binding signal (z-score) [2]: -0.496
- glycan array binding signal (z-score) [3]: -0.505
- glycan array binding signal (z-score) [4]: -0.492
- glycan array binding signal (z-score) [5]: -0.505
- glycan array binding signal (z-score) [6]: -0.505
- glycan array binding signal (z-score) [7]: 1.9
- glycan array binding signal (z-score) [8]: 1.17
- glycan array binding signal (z-score) [9]: 2.41
- glycan array binding signal (z-score) [10]: -0.468
- glycan array binding signal (z-score) [11]: 1.73
- glycan array binding signal (z-score) [12]: -0.508
- glycan array binding signal (z-score) (Neu5Ac(a2-6)GalNAc): -0.507
- glycan array binding signal (z-score) [13]: -0.509
- glycan array binding signal (z-score) [14]: -0.495
- glycan array binding signal (z-score) [15]: -0.502
- glycan array binding signal (z-score) (Neu5Ac(a2-8)Neu5Ac): -0.497
- glycan array binding signal (z-score) [16]: -0.506
- glycan array binding signal (z-score) [17]: 3.67
- glycan array binding signal (z-score) [18]: -0.504
- glycan array binding signal (z-score) [19]: -0.496
- glycan array binding signal (z-score) [20]: 2.62
- glycan array binding signal (z-score) [21]: 2.65
- glycan array binding signal (z-score) [22]: -0.507
- glycan array binding signal (z-score) (Neu5Ac(b2-6)GalNAc): -0.51
- glycan array binding signal (z-score) [23]: -0.505
- glycan array binding signal (z-score) [24]: -0.507
- glycan array binding signal (z-score) [25]: -0.494
- glycan array binding signal (z-score) [26]: -0.503
- glycan array binding signal (z-score) [27]: -0.506
- glycan array binding signal (z-score) (Neu5Gc(a2-3)Gal(b1-4)Glc): -0.5
- glycan array binding signal (z-score) [28]: -0.505
- glycan array binding signal (z-score) [29]: 3.45
- glycan array binding signal (z-score) [30]: -0.503
- glycan array binding signal (z-score) (Neu5Gc(a2-6)GalNAc): -0.508
- glycan array binding signal (z-score) [31]: -0.503
